Inconclusive means that the source gave no clear call. Such entries were picked first, then a sample of the others. The source made the active and inactive calls.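 The calls were made as follows: active = thallium flux slope more than 3 SD above or below the plate's solvent-only control mean, mostly below; inconclusive = the two repeat wells disagreed; inactive = no significant shift from solvent-only controls.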
Molecular target: Solute carrier family 12 member 5 (Homo sapiens) (UniProt Q9H2X9)
Assay: retest of KCC2 transport modulation, ouabain-free – cell-based, HEK293 KCC2, thallium flux, FluoZin2, secondary assay 2, confirmation (AID 1715);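 also: raw slope with 0.1% DMSO as baseline and bumetanide as block control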
Details: HEK293-KCC2, thallium flux FluoZin2 fluorescence; at 10 µM; actives lie on both sides; F/F0 rise rate, 10–20 s post-thallium

UniProt Q9H2X9, sequence (Q9H2X9 whole entry, looked up): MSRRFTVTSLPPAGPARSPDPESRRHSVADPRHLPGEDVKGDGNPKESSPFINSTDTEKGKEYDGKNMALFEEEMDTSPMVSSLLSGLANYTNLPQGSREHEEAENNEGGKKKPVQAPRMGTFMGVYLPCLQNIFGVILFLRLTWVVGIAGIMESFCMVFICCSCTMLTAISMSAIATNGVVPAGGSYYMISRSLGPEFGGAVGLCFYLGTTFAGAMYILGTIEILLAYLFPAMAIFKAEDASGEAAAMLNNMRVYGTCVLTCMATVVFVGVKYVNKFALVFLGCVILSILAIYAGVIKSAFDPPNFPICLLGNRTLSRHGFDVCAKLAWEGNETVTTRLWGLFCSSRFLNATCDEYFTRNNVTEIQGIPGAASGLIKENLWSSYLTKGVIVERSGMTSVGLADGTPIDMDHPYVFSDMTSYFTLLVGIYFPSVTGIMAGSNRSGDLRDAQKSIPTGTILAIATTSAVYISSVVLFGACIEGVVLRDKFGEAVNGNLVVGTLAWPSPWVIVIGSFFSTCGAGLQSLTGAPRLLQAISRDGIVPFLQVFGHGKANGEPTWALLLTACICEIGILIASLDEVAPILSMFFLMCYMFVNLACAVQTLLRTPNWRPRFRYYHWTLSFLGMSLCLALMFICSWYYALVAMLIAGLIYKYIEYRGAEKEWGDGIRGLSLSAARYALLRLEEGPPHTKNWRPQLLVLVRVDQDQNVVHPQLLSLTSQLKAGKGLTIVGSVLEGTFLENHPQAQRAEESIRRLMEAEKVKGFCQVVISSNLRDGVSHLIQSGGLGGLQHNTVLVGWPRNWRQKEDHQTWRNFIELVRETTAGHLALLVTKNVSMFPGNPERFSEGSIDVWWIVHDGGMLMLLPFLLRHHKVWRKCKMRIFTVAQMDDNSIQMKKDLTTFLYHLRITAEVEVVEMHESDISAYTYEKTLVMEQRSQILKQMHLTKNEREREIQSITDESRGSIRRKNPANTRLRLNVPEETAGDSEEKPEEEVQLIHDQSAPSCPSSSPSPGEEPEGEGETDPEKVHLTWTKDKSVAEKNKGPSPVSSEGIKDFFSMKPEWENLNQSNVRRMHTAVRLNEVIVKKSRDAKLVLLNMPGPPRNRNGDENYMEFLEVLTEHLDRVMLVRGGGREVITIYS

Row | Compound | normalized thallium flux
1 | O=C(O)CSc1ncnc2sc3c(c12)CCCC3 | inconclusive: 0.0256
2 | O=C(NNC(=S)NC(=O)c1sc2ccccc2c1Cl)c1ccc(Cl)cc1 | inconclusive: 0.038
3 | O=c1oc2ccccc2c(Nc2cc3ccccc3cc2O)c1[N+](=O)[O-] | inconclusive: 0.0261
4 | Cc1[nH]c2ccccc2c1Cc1n[nH]c(=S)n1C | active: 0.0237
5 | O=C(Nc1nnc(SCc2ccc(F)cc2)s1)c1ccccn1 | inconclusive: 0.0333
6 | CCCCCN1C/C=C\C(c2ccc(OC)cc2)N(Cc2ccc(F)cc2)C(=O)C1 (stereo not given) | inconclusive: 0.0297
7 | COc1ccccc1-n1cnc2cc(NS(=O)(=O)c3ccccc3)ccc21 | active: 0.0252
8 | COc1cccc(NC(=S)NN=C2CCCCCC2)c1 | inconclusive: 0.0343
9 | Cc1ccc(Cn2c(SCC(=O)Nc3cc(C)on3)nc3ccccc3c2=O)cc1 | inconclusive: 0.037
10 | COc1ccc(-c2nnc(SCc3ncc(-c4ccccc4)o3)o2)cc1 | inconclusive: 0.027
11 | c1ccc(-c2ccc(-n3ccnc3)cc2)cc1 | inconclusive: 0.0306
12 | O=S(=O)(NCc1ccccc1)c1ccc(Cl)c(S(=O)(=O)NCc2ccccc2)c1 | inconclusive: 0.0261
13 | Cc1onc(-c2ccccc2)c1C(=O)NNC(=S)NC(=O)/C=C/c1cccs1 | inconclusive: 0.037
14 | CCOC(=O)N1CCN(C(=O)c2cccc(-n3c(=S)[nH]c4cc(Cl)ccc4c3=O)c2)CC1 | inconclusive: 0.0394
15 | CCN(CC)S(=O)(=O)c1ccc(NC(=O)CSc2ncnc3ccccc23)cc1 | inconclusive: 0.0284
16 | CCOC(=O)c1c(NC(=S)NC)sc2c1CCCC2 | active: 0.0972
17 | CCOC(=O)Cn1c(=O)oc2cc(S(=O)(=O)N3CCc4ccccc43)ccc21 | inactive: 0.0312
18 | CC(C)C(=O)NC(=S)N1CCc2ccccc21 | inconclusive: 0.0379
19 | COCCNC(=S)N/N=C(\C)c1cc2ccccc2o1 | inconclusive: 0.038
20 | COC(=O)c1ccccc1NC(=S)NC(=O)COc1ccccc1Cl | inconclusive: 0.034

Row | Compound | normalized thallium flux
21 | CCn1c(CCNC(=O)c2cccs2)nnc1SCC(=O)Nc1nc(-c2ccccc2)cs1 | inconclusive: 0.0295
22 | CC1CCN(C(=S)NC(=O)c2cccs2)CC1 | inconclusive: 0.0413
23 | O=C(NC(=S)Nc1cccc(F)c1)c1cccc([N+](=O)[O-])c1 | inconclusive: 0.034
24 | Cc1cc(C)c2cc(CN(Cc3cccs3)Cc3nnnn3CC3CCCO3)c(=O)[nH]c2c1 (stereo not given) | inconclusive: 0.0268
25 | NC(=S)N=Nc1c(O)n(CCCl)c2ccccc12 | inconclusive: 0.0373
26 | CC(C)n1cnc2c(Nc3cccc(Cl)c3)nc(N(CCO)CCCO)nc21 | active: 0.0232
27 | CCOC(=O)c1[nH]c2ccc(Br)cc2c1NC(=O)CCN1CCC(C(=O)OCC)CC1 | inconclusive: 0.0293
28 | O=C(C1CC(c2ccccc2O)=NO1)N1CCc2ccccc2C1 (stereo not given) | inconclusive: 0.0265
29 | Oc1[nH]c2ccc(Br)cc2c1N=NC(=S)Nc1ccc(F)cc1 | inconclusive: 0.0382
30 | CSc1nc(SC(C)C(=O)O)c2c3c(sc2n1)COC(C)(C)C3 (stereo not given) | inconclusive: 0.0388
31 | Cc1cc2cc3c(cc2nc1SCc1ccc(C(=O)O)cc1)OCCO3 | inconclusive: 0.0296
32 | Cc1ccc(S(=O)(=O)N(C)c2nc3ccccc3[nH]c2=S)cc1 | inconclusive: 0.0364
33 | S=c1[nH]c2ccccc2n2cccc12 | inconclusive: 0.035
34 | O=C(CN1C(=O)NC(Cc2ccccc2)C1=O)NC(=O)NC1CCCCC1 (stereo not given) | inconclusive: 0.0261
35 | COc1ccc(S(=O)(=O)N2CCC(C(=O)N3CCc4ccccc4C3)CC2)cc1C | active: 0.0244
36 | CC(C)Cn1c(-c2ccc(Br)cc2)c[nH]c1=S | inconclusive: 0.0356
37 | O=C1NC(=S)N(C(=O)c2ccc(F)cc2)/C1=C/c1ccccc1 | inconclusive: 0.0397
38 | O=C(NC(=S)Nc1cccc(C(F)(F)F)c1)c1ccc2nonc2c1 | inconclusive: 0.0418
39 | S=c1[nH]nc(CSCCOc2ccc(Cl)cc2Cl)o1 | inconclusive: 0.0241
40 | S=c1[nH]nc(-c2ccc(Cl)cc2Cl)n1Cc1ccccc1 | inconclusive: 0.0374

Source: PubChem BioAssay
